# Test results published in the supplement of paper PMC8728848.
# Shown is part of a subset that was picked to be rich in the strongest signals.
# Columns and labels:
# Assay in all cases: glycan array binding signal (z-score within array); higher = stronger binding
# Details in all cases: glycan notation: IUPAC condensed, linker removed
# Fuc(a1-2)Gal(b1-4)GlcNAc = biological target: Fuc(a1-2)Gal(b1-4)GlcNAc
# Procedure, shortened: (§1)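 The binding signal is a Z-score computed within each array. Data were drawn from 3228 arrays in the Consortium for Functional Glycomics database, restricted to those with a known protein sequence. Scores were averaged over arrays of the same protein sequence at different concentrations or buffers, and over linkers, and negative values can be taken as non-binding.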
# [1] = biological target: Fuc(a1-2)[Gal(a1-4)]Gal(b1-4)GlcNAc
# Procedure, shortened: as §1
# [2] = biological target: Fuc(a1-3)[Gal3S(b1-4)]GlcNAc
# Procedure, shortened: as §1
# Gal(a1-2)Gal = biological target: Gal(a1-2)Gal
# Procedure, shortened: as §1
# Gal(a1-3)Gal(b1-3)GlcNAc = biological target: Gal(a1-3)Gal(b1-3)GlcNAc
# Procedure, shortened: as §1
# [3] = biological target: Gal(a1-3)[Gal(a1-4)]Gal(b1-4)GlcNAc
# Procedure, shortened: as §1
# [4] = biological target: Gal(b1-3)GlcNAc(b1-3)Gal(b1-4)Glc
# Procedure, shortened: as §1
# [5] = biological target: Gal(b1-3)[Fuc(a1-4)]GlcNAc(b1-3)Gal(b1-3)[Fuc(a1-4)]GlcNAc
# Procedure, shortened: as §1
# [6] = biological target: Gal(b1-3)[Neu5Ac(a2-6)]GlcNAc(b1-6)Gal(b1-4)Glc
# Procedure, shortened: as §1
# Gal(b1-4)Glc6S = biological target: Gal(b1-4)Glc6S
# Procedure, shortened: as §1
# Gal3S(b1-3)GlcNAc = biological target: Gal3S(b1-3)GlcNAc
# Procedure, shortened: as §1
# Gal3S(b1-4)Glc = biological target: Gal3S(b1-4)Glc
# Procedure, shortened: as §1
# Gal3S4S(b1-4)GlcNAc = biological target: Gal3S4S(b1-4)GlcNAc
# Procedure, shortened: as §1
# Gal4S6S(b1-4)GlcNAc = biological target: Gal4S6S(b1-4)GlcNAc
# Procedure, shortened: as §1
# GalNAc(a1-3)GalNAc = biological target: GalNAc(a1-3)GalNAc
# Procedure, shortened: as §1
# Glc(a1-6)Glc(a1-6)Glc = biological target: Glc(a1-6)Glc(a1-6)Glc
# Procedure, shortened: as §1
# [7] = biological target: GlcNAc(b1-3)Gal(b1-3)GalNAc
# Procedure, shortened: as §1
# [8] = biological target: GlcNAc(b1-4)GlcNAc(b1-4)GlcNAc
# Procedure, shortened: as §1
# [9] = biological target: GlcNAc(b1-4)[GlcNAc(b1-6)]GalNAc
# Procedure, shortened: as §1
# Man(a1-3)[Man(a1-6)]Man = biological target: Man(a1-3)[Man(a1-6)]Man
# Procedure, shortened: as §1
# Man(b1-4)GlcNAc = biological target: Man(b1-4)GlcNAc
# Procedure, shortened: as §1
# [10] = biological target: Neu5Ac(a2-3)Gal(b1-3)GalNAc(b1-3)Gal(a1-4)Gal(b1-4)Glc
# Procedure, shortened: as §1
# [11] = biological target: Neu5Ac(a2-3)Gal6S(b1-4)GlcNAc
# Procedure, shortened: as §1
# [12] = biological target: Neu5Ac(a2-3)GalNAc(b1-4)GlcNAc
# Procedure, shortened: as §1
# [13] = biological target: Neu5Ac(a2-3)[GalNAc(b1-4)]Gal(b1-4)GlcNAc
# Procedure, shortened: as §1
# Neu5Ac(a2-6)Gal(b1-4)Glc = biological target: Neu5Ac(a2-6)Gal(b1-4)Glc
# Procedure, shortened: as §1
# [14] = biological target: Neu5Gc(a2-3)Gal(b1-3)[Fuc(a1-4)]GlcNAc
# Procedure, shortened: as §1
binder,measurement,setting,value
"Properdin (Homo sapiens), P27918 (protein) MITEGAQAPRLLLPPLLLLLTLPATGSDPVLCFTQYEESSGKCKGLLGGGVSVEDCCLNTAFAYQKRSGGLCQPCRSPRWSLWSTWAPCSVTCSEGSQLRYRRCVGWNGQCSGKVAPGTLEWQLQACEDQQCCPEMGGWSGWGPWEPCSVTCSKGTRTRRRACNHPAPKCGGHCPGQAQESEACDTQQVCPTHGAWATWGPWTPCSASCHGGPHEPKETRSRKCSAPEPSQKPPGKPCPGLAYEQRRCTGLPPCPVAGGWGPWGPVSPCPVTCGLGQTMEQRTCNHPVPQHGGPFCAGDATRTHICNTAVPCPVDGEWDSWGEWSPCIRRNMKSISCQEIPGQQSRGRTCRGRKFDGHRCAGQQQDIRHCYSIQHCPLKGSWSEWSTWGLCMPPCGPNPTRARQRLCTPLLPKYPPTVSMVEGQGEKNVTFWGRPLPRCEELQGQKLVVEEKRPCLHVPACKDPEEEEL",glycan array binding signal (z-score),Fuc(a1-2)Gal(b1-4)GlcNAc,-0.53
same,glycan array binding signal (z-score),[1],3.96
same,glycan array binding signal (z-score),[2],-0.582
same,glycan array binding signal (z-score),Gal(a1-2)Gal,1.18
same,glycan array binding signal (z-score),Gal(a1-3)Gal(b1-3)GlcNAc,0.292
same,glycan array binding signal (z-score),[3],3.93
same,glycan array binding signal (z-score),[4],4.5
same,glycan array binding signal (z-score),[5],-0.389
same,glycan array binding signal (z-score),[6],3.63
same,glycan array binding signal (z-score),Gal(b1-4)Glc6S,1.92
same,glycan array binding signal (z-score),Gal3S(b1-3)GlcNAc,-0.079
same,glycan array binding signal (z-score),Gal3S(b1-4)Glc,-0.431
same,glycan array binding signal (z-score),Gal3S4S(b1-4)GlcNAc,-0.477
same,glycan array binding signal (z-score),Gal4S6S(b1-4)GlcNAc,-0.499
same,glycan array binding signal (z-score),GalNAc(a1-3)GalNAc,0.277
same,glycan array binding signal (z-score),Glc(a1-6)Glc(a1-6)Glc,3.84
same,glycan array binding signal (z-score),[7],-0.322
same,glycan array binding signal (z-score),[8],1.91
same,glycan array binding signal (z-score),[9],1.04
same,glycan array binding signal (z-score),Man(a1-3)[Man(a1-6)]Man,-0.112
same,glycan array binding signal (z-score),Man(b1-4)GlcNAc,-0.249
same,glycan array binding signal (z-score),[10],0.235
same,glycan array binding signal (z-score),[11],-0.45
same,glycan array binding signal (z-score),[12],-0.424
same,glycan array binding signal (z-score),[13],-0.417
same,glycan array binding signal (z-score),Neu5Ac(a2-6)Gal(b1-4)Glc,0.059
same,glycan array binding signal (z-score),[14],-0.589
